# Laboratory results as given in the supplement of paper PMC4604168 (melanoma cell lines).
# Some of the results follow. Repeats are few or missing, and single values can be far off.
# System: A101D
# Experiment: cell count relative to DMSO control; melanoma cells; higher = more viable cells
# Settings: library dose: standard library concentration; 72 h
# 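Also: cells treated in 1,536-well plates, then fixed and DAPI-stained, with nuclei counted from automated high-throughput microscope images.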
row,Structure (SMILES),cell count [%]
1,"Clc1ccc(Nc2nnc(Cc3ccncc3)c3ccccc23)cc1 [vatalanib] + CN(NC(=O)CC(=O)NN(C)C(=S)c1ccccc1)C(=S)c1ccccc1 [STA4783] (first compound 10 µM, partner dose 0.03 µM)",57.2
2,"Clc1ccc(Nc2nnc(Cc3ccncc3)c3ccccc23)cc1 [vatalanib] + OCCn1cc(-c2cnc3nnn(Cc4ccc5ncccc5c4)c3n2)cn1 [PF04217903] (first compound 10 µM, partner dose 5 µM)",76
3,"OCc1c[nH]c2ccccc12 [Indole-3-carbinol] + C#Cc1cccc(Nc2ncnc3cc(OCCOC)c(OCCOC)cc23)c1 [erlotinib] (first compound 4 µM, partner dose 4 µM)",70.5
4,"COCC[n+]1c2c(n(Cc3cnccn3)c1C)C(=O)c1ccccc1C2=O + NCC(=O)Nc1ccc(-n2nc(C(F)(F)F)cc2-c2ccc3c(ccc4ccccc43)c2)cc1 [OSU03012] (first compound 0.002 µM, partner dose 5 µM)",59.4
5,"Cn1c(Nc2ccc(C(F)(F)F)cc2)nc2cc(Oc3ccnc(-c4ncc(C(F)(F)F)[nH]4)c3)ccc21 + COc1cc(Nc2ncc(F)c(Nc3ccc4c(n3)NC(=O)C(C)(C)O4)n2)cc(OC)c1OC [Tamatinib] (first compound 0.4 µM, partner dose 2 µM)",46.1
6,"COCC[n+]1c2c(n(Cc3cnccn3)c1C)C(=O)c1ccccc1C2=O + Cn1nnc2c(C(N)=O)ncn2c1=O [temozolomide] (first compound 0.002 µM, partner dose 10 µM)",46.5
7,"Cn1c(Nc2ccc(C(F)(F)F)cc2)nc2cc(Oc3ccnc(-c4ncc(C(F)(F)F)[nH]4)c3)ccc21 + Cc1cc(N2CCOCC2)cc2[nH]c(-c3c(NC[C@@H](O)c4cccc(Cl)c4)cc[nH]c3=O)nc12 [BMS536924] (first compound 0.4 µM, partner dose 1 µM)",62.6
8,"OCc1c[nH]c2ccccc12 [Indole-3-carbinol] + NCC(=O)Nc1ccc(-n2nc(C(F)(F)F)cc2-c2ccc3c(ccc4ccccc43)c2)cc1 [OSU03012] (first compound 4 µM, partner dose 5 µM)",90.1
9,"COCC[n+]1c2c(n(Cc3cnccn3)c1C)C(=O)c1ccccc1C2=O + C[C@@H]1CCN(C(=O)CC#N)C[C@@H]1N(C)c1ncnc2[nH]ccc12 [CP690550] (first compound 0.002 µM, partner dose 5 µM)",63.5
10,"OCc1c[nH]c2ccccc12 [Indole-3-carbinol] + CN(NC(=O)CC(=O)NN(C)C(=S)c1ccccc1)C(=S)c1ccccc1 [STA4783] (first compound 4 µM, partner dose 0.03 µM)",51.2
11,"COCC[n+]1c2c(n(Cc3cnccn3)c1C)C(=O)c1ccccc1C2=O + COc1cc2c(Oc3ccc4[nH]c(C)cc4c3F)ncnc2cc1OCCCN1CCCC1 [cediranib] (first compound 0.002 µM, partner dose 2 µM)",68.5
12,"Clc1ccc(Nc2nnc(Cc3ccncc3)c3ccccc23)cc1 [vatalanib] + Cn1c(Nc2ccc(C(F)(F)F)cc2)nc2cc(Oc3ccnc(-c4ncc(C(F)(F)F)[nH]4)c3)ccc21 [CHIR265] (first compound 10 µM, partner dose 0.4 µM)",50.7
13,"Clc1ccc(Nc2nnc(Cc3ccncc3)c3ccccc23)cc1 [vatalanib] + O=C(Nc1cccc(Cl)c1)Nc1ncc(CCNc2ncnc3ccsc23)s1 [SNS314] (first compound 10 µM, partner dose 0.004 µM)",72.3
14,"COCC[n+]1c2c(n(Cc3cnccn3)c1C)C(=O)c1ccccc1C2=O + NC(=O)Nc1cc(-c2cccc(F)c2)sc1C(=O)N[C@H]1CCCNC1 [AZD7762] (first compound 0.002 µM, partner dose 0.1 µM)",51.7
15,"O=C(CCCCCCC(=O)Nc1ccccc1)NO [vorinostat] + COc1cc(Nc2ncc(F)c(Nc3ccc4c(n3)NC(=O)C(C)(C)O4)n2)cc(OC)c1OC [Tamatinib] (first compound 0.4 µM, partner dose 2 µM)",36.5
16,"Clc1ccc(Nc2nnc(Cc3ccncc3)c3ccccc23)cc1 [vatalanib] + CC1(C)NC(=O)N(c2ccc([N+](=O)[O-])c(C(F)(F)F)c2)C1=O [nilutamide] (first compound 10 µM, partner dose 5 µM)",74.2
17,"Nc1cccc2c1CN(C1CCC(=O)NC1=O)C2=O (stereo not drawn) [lenalidomide] + NC(=O)Nc1cc(-c2cccc(F)c2)sc1C(=O)N[C@H]1CCCNC1 [AZD7762] (first compound 5 µM, partner dose 0.1 µM)",61

row,Structure (SMILES),cell count [%]
1,"O=C(CCCCCCC(=O)Nc1ccccc1)NO [vorinostat] + CO[C@@H]1[C@H](N(C)C(=O)c2ccccc2)C[C@H]2O[C@]1(C)n1c3ccccc3c3c4c(c5c6ccccc6n2c5c31)C(=O)NC4 [Midostaurin] (first compound 0.4 µM, partner dose 0.4 µM)",52
2,"O=C(CCCCCCC(=O)Nc1ccccc1)NO [vorinostat] + Cn1cncc1[C@@](N)(c1ccc(Cl)cc1)c1ccc2c(c1)c(-c1cccc(Cl)c1)cc(=O)n2C [tipifarnib] (first compound 0.4 µM, partner dose 0.05 µM)",69.3
3,"Nc1cccc2c1CN(C1CCC(=O)NC1=O)C2=O (stereo not drawn) [lenalidomide] + NCC(=O)Nc1ccc(-n2nc(C(F)(F)F)cc2-c2ccc3c(ccc4ccccc43)c2)cc1 [OSU03012] (first compound 5 µM, partner dose 5 µM)",98.2
4,"O=C(CCCCCCC(=O)Nc1ccccc1)NO [vorinostat] + COc1cc2c(Oc3ccc4[nH]c(C)cc4c3F)ncnc2cc1OCCCN1CCCC1 [cediranib] (first compound 0.4 µM, partner dose 2 µM)",71
5,"Nc1cccc2c1CN(C1CCC(=O)NC1=O)C2=O (stereo not drawn) [lenalidomide] + CN(C)S(=O)(=O)c1ccc2c(c1)/C(=C/c1cc3c([nH]1)CCCC3)C(=O)N2 [SU6656] (first compound 5 µM, partner dose 2 µM)",76.9
6,"OCc1c[nH]c2ccccc12 [Indole-3-carbinol] + COCC[n+]1c2c(n(Cc3cnccn3)c1C)C(=O)c1ccccc1C2=O [YM155] (first compound 4 µM, partner dose 0.002 µM)",83.6
7,"C#Cc1cccc(Nc2ncnc3cc(OCCOC)c(OCCOC)cc23)c1 [erlotinib] + Cc1cc(N2CCOCC2)cc2[nH]c(-c3c(NC[C@@H](O)c4cccc(Cl)c4)cc[nH]c3=O)nc12 [BMS536924] (first compound 4 µM, partner dose 1 µM)",44.9
8,"C#Cc1cccc(Nc2ncnc3cc(OCCOC)c(OCCOC)cc23)c1 [erlotinib] + OCCn1cc(-c2cnc3nnn(Cc4ccc5ncccc5c4)c3n2)cn1 [PF04217903] (first compound 4 µM, partner dose 5 µM)",59.4
9,"COCC[n+]1c2c(n(Cc3cnccn3)c1C)C(=O)c1ccccc1C2=O + Cn1cncc1[C@@](N)(c1ccc(Cl)cc1)c1ccc2c(c1)c(-c1cccc(Cl)c1)cc(=O)n2C [tipifarnib] (first compound 0.002 µM, partner dose 0.05 µM)",61.4
10,"O=C(CCCCCCC(=O)Nc1ccccc1)NO [vorinostat] + O=C(O)c1ccc(-c2c[nH]c3ncc(-c4ccccc4)cc23)cc1C1CCCC1 [GSK650394] (first compound 0.4 µM, partner dose 0.8 µM)",83.2
11,"Clc1ccc(Nc2nnc(Cc3ccncc3)c3ccccc23)cc1 [vatalanib] + COc1cc(Nc2ncc(F)c(Nc3ccc4c(n3)NC(=O)C(C)(C)O4)n2)cc(OC)c1OC [Tamatinib] (first compound 10 µM, partner dose 2 µM)",18.9
12,"Nc1cccc2c1CN(C1CCC(=O)NC1=O)C2=O (stereo not drawn) [lenalidomide] + Cc1cc(N2CCOCC2)cc2[nH]c(-c3c(NC[C@@H](O)c4cccc(Cl)c4)cc[nH]c3=O)nc12 [BMS536924] (first compound 5 µM, partner dose 1 µM)",90.4
13,"O=C(CCCCCCC(=O)Nc1ccccc1)NO [vorinostat] + CC1(C)NC(=O)N(c2ccc([N+](=O)[O-])c(C(F)(F)F)c2)C1=O [nilutamide] (first compound 0.4 µM, partner dose 5 µM)",92.3
14,"COCC[n+]1c2c(n(Cc3cnccn3)c1C)C(=O)c1ccccc1C2=O + O=C(O)c1ccc(-c2c[nH]c3ncc(-c4ccccc4)cc23)cc1C1CCCC1 [GSK650394] (first compound 0.002 µM, partner dose 0.8 µM)",85.1
15,"C#Cc1cccc(Nc2ncnc3cc(OCCOC)c(OCCOC)cc23)c1 [erlotinib] + C[C@@H]1CCN(C(=O)CC#N)C[C@@H]1N(C)c1ncnc2[nH]ccc12 [CP690550] (first compound 4 µM, partner dose 5 µM)",72.9
16,"COCC[n+]1c2c(n(Cc3cnccn3)c1C)C(=O)c1ccccc1C2=O + CN(NC(=O)CC(=O)NN(C)C(=S)c1ccccc1)C(=S)c1ccccc1 [STA4783] (first compound 0.002 µM, partner dose 0.03 µM)",41.2
